Experimental data taken from PubChem BioAssay AID588855 (National Center for Advancing Translational Sciences (NCATS), 2011).
Out of some 410,000 compounds screened, about 5,000 (1.2%) were called active. Inconclusive results, whose numbers are uncertain, are shown with a selection of clear calls. Calls come from the whole dose curve; as a rule, active = well fitted inhibition curve with a large enough effect; inconclusive = small, poorly fitted or top-dose-only effect; inactive = no such curve, though single readings can be large or run the other way. Potencies beside an inconclusive call are fits to weak or partial responses and may not hold up.
Potency is the fitted concentration of half-maximal effect; tags give direction and shape of the fitted curve.

Experiment: qHTS for Inhibitors of TGF-b; note: nearly all actives have a fitted effect of over 65% in size
Details: HepG2 CAGA-GFP TGF-b/SMAD3 reporter, GFP fluorescence, 18 h, TGF-beta stimulated, 500 pg/mL final; series mostly up to 46.1 µM
Summary of the method: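 HEPG2 CAGA-GFP, 1000 cells/well; 2 h settle, 37 C; cpd via pin tool; TGF-b 500 pg/mL final; 18 h, 37 C; GFP imaging ex488/em500-530; %Activity normalised to -TGF-b and +DMSO controls; CRC fit, curve class.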
In the case of `CCOc1ccc(N(CC(=O)Nc2ccccc2OC)S(=O)(=O)c2ccccc2)cc1`, the Potency is reported as inconclusive: 14.1 µM [inhibitor, partial curve].
For `COc1ccc(NC(=O)CSc2ccc3c(c2)OCCO3)cc1OC`, the Potency was “inactive”.
With `COc1ccc(CNS(=O)(=O)c2ccc(S(=O)(=O)N3CCCCC3)cc2)cc1` the Potency was inconclusive: 35.5 µM [inhibitor, single point].
For `Cc1oc(-c2ccc(-c3ccccc3)cc2)nc1CN(C)C1CCOC1` (stereo not drawn), the Potency was inconclusive: 15.8 µM [inhibitor, single point].
For `Cc1cccc(OCCC(=O)Nc2ccc(C)c(S(=O)(=O)N3CCOCC3)c2)c1`, the Potency was inconclusive: 35.5 µM [inhibitor, single point].
For `Cc1cc2c(cc1C)C(c1ccccc1OC(C)C)CC(=O)N2` (stereo not drawn), the Potency was inconclusive: 17.8 µM [inhibitor, single point].
With `COc1cccc(CNC(=O)CCCn2nc(C)c3sc4ccccc4c3c2=O)c1` the Potency was “inactive”.
With `COc1ccc(NC(=O)Nc2cccc3c2O[C@H](CN(C)S(=O)(=O)c2ccccc2)[C@@H](C)CN([C@H](C)CO)C3=O)cc1` the Potency was inconclusive: 5.62 µM [inhibitor, single point].
With `Cc1ccc(S(=O)(=O)NCCC(=O)OCC(=O)N2CCCC2=O)cc1C` the Potency was inconclusive: 0.447 µM [inhibitor, partial curve, poor fit].
With `CCN(CC(=O)Nc1ccc(OC)cc1)C(=O)CCS(=O)(=O)c1ccc(C)cc1` the Potency was inconclusive: 3.55 µM [inhibitor, single point].
In the case of `O=C(NCCN1CCN(c2ccccc2)CC1)C1(S(=O)(=O)c2ccc(Cl)cc2)CC1`, the Potency is reported as “inactive”.
For `CCOC(=O)c1c(C)oc2nc(C)nc(N3CCN(c4cc(Cl)ccc4C)CC3)c12`, the Potency was inconclusive: 22.4 µM [inhibitor, single point].
In the case of `CC(O)(c1cccc(F)c1)c1nc(-c2ccc3ccccc3c2)cs1` (stereo not drawn), the Potency is reported as inconclusive: 17.8 µM [inhibitor, single point].
In the case of `O=C(CCc1ccccc1)NC(=S)Nc1ccccc1Br`, the Potency is reported as inconclusive: 35.5 µM [inhibitor, single point].
In the case of `Cc1onc(-c2ccccc2)c1C(=O)Nc1nnc(C(C)C)s1`, the Potency is reported as “inactive”.
With `C[C@H](O)[C@@H]1CN2CCc3c([nH]c4ccccc34)[C@@H]2C[C@@H]1N(C)C(=O)Nc1cccc2ccccc12` the Potency was inconclusive: 12.6 µM [inhibitor, single point].
With `CCNc1nc(C)c2cc(Br)c(=O)n(CC)c2n1` the Potency was “inactive”.
With `C(=N\Nc1nc2ccccc2[nH]1)/c1cccc2cccnc12` the Potency was inconclusive: 3.55 µM [inhibitor, full curve].
In the case of `Cc1ccc(N2CCN(S(=O)(=O)N3CCCCC3)CC2)cc1Cl`, the Potency is reported as inconclusive: 35.5 µM [inhibitor, single point].
For `COc1ccc(/C=N\NC(=O)c2cc3c(ccc4ccccc43)o2)cc1O`, the Potency was inconclusive: 11.2 µM [inhibitor, single point].
With `COc1ccc(-n2c(C)nnc2SCc2nc(-c3ccc(OC)c(OC)c3)no2)cc1` the Potency was inconclusive: 0.112 µM [inhibitor, full curve, poor fit].
With `CCOc1ccc2nc(SCc3ccc(OC)cc3)sc2c1` the Potency was inconclusive: 6.31 µM [inhibitor, single point].
With `COc1ccc(CC(=O)Nc2nc(-c3cccnc3)cs2)cc1` the Potency was “inactive”.
In the case of `Cc1ccc(/C=N/NC(=O)CSc2nc3ccccc3o2)cc1`, the Potency is reported as inconclusive: 35.5 µM [inhibitor, single point].
With `Cc1noc(C)c1-c1ccc(C(=O)Nc2cccc(C(F)(F)F)c2)c2occc12` the Potency was “inactive”.
With `NC(=O)c1nsc(C(=O)N(Cc2cccnc2)C(C(=O)NCc2ccccc2)c2ccc(O)cc2)c1N` (stereo not drawn) the Potency was “inactive”.
In the case of `CC1CCCCC1Nc1nc2ccc(Cl)cc2n2cnnc12` (stereo not drawn), the Potency is reported as inconclusive: 35.5 µM [inhibitor, single point].
For `CC(C)(C)OC(=O)N1CCC(c2c(C(=O)NCC3CCN(C4CCCC4)C3)cnn2-c2ccccc2Cl)CC1` (stereo not drawn), the Potency was inconclusive: 0.447 µM [inhibitor, full curve, poor fit].
In the case of `N#Cc1c(-c2ccncc2)cc(-c2ccc(F)cc2)nc1N`, the Potency is reported as “inactive”.
In the case of `CCN1CCN(Cc2cccc(Oc3ccccc3)c2)CC1`, the Potency is reported as “inactive”.
With `Cc1ccccc1NS(=O)(=O)c1ccc2[nH]cc(C(=O)NC3CCCCC3)c(=O)c2c1` the Potency was inconclusive: 20 µM [inhibitor, single point].
In the case of `CN(C(=O)c1cccc(NC(=O)Cc2ccc(NC(=O)C3CCCN(C(=O)CCc4ccccc4)C3)cc2)c1)C1CCCC1` (stereo not drawn), the Potency is reported as inconclusive: 7.94 µM [inhibitor, partial curve, poor fit].
For `COc1ccc(NC(=O)C(=O)Nc2cccc3cccnc23)c(OC)c1`, the Potency was “inactive”.
With `COc1cccc(-c2nc(SCC(=O)Nc3nc(-c4ccccc4)c(C)s3)[nH]c(=O)c2C#N)c1` the Potency was inconclusive: 10 µM [inhibitor, partial curve].
With `CCCCCCC[n+]1ccc(C)c2ccccc21` the Potency was inconclusive: 14.1 µM [inhibitor, single point].
For `CC(=O)Cc1cc(O)c2ccccc2c1OC(=O)c1ccccc1`, the Potency was inconclusive: 22.4 µM [inhibitor, single point].
With `CCN(CC(=O)Nc1c(F)cccc1F)C(=O)/C=C/c1ccc2ccccc2n1` the Potency was inconclusive: 11.2 µM [inhibitor, partial curve, poor fit].
For `CCc1ccc(OCC(=O)NNC(=O)C2CCN(c3ncnc4sc(C)c(C)c34)CC2)cc1`, the Potency was inconclusive: 35.5 µM [inhibitor, single point].
For `CC1=CC(C)(C)NC(=S)N1C(C)c1ccccc1` (stereo not drawn), the Potency was inconclusive: 14.1 µM [inhibitor, single point].
For `CC(=O)N1CCN(c2ccc(NC(=O)c3ccc4c(c3)OCCO4)cc2)CC1`, the Potency was “inactive”.
For `CCn1c(C(=O)Nc2c(C)cccc2C)cc2sc(Cl)cc21`, the Potency was “inactive”.
In the case of `COc1cccc(NC(=O)N(Cc2c[nH]c3ccccc23)C2CCCCCC2)c1`, the Potency is reported as inconclusive: 10 µM [inhibitor, partial curve].
In the case of `O=C(C[C@H]1C/C=C\CC[C@H](Cc2ccc(F)cc2)C(=O)OC[C@H]2CCCN2C1=O)N[C@@H](CO)Cc1ccccc1`, the Potency is reported as inconclusive: 35.5 µM [inhibitor, partial curve, poor fit].
